Test results: publication PMC4336329 (PLoS ONE, 2015)
Screen size: about 310,000 compounds; about 2,200 (0.71%) showed an effect of 50% or more. The effect is printed as a negative number. The list shows a part of the results.

Target: human ether-à-go-go-related gene (hERG) potassium channel (human, UniProt Q12809)
Test: primary screen, population patch clamp on CHO cells stably expressing hERG

Chain of human ether-à-go-go-related gene (hERG) potassium channel (Q12809 whole entry, looked up): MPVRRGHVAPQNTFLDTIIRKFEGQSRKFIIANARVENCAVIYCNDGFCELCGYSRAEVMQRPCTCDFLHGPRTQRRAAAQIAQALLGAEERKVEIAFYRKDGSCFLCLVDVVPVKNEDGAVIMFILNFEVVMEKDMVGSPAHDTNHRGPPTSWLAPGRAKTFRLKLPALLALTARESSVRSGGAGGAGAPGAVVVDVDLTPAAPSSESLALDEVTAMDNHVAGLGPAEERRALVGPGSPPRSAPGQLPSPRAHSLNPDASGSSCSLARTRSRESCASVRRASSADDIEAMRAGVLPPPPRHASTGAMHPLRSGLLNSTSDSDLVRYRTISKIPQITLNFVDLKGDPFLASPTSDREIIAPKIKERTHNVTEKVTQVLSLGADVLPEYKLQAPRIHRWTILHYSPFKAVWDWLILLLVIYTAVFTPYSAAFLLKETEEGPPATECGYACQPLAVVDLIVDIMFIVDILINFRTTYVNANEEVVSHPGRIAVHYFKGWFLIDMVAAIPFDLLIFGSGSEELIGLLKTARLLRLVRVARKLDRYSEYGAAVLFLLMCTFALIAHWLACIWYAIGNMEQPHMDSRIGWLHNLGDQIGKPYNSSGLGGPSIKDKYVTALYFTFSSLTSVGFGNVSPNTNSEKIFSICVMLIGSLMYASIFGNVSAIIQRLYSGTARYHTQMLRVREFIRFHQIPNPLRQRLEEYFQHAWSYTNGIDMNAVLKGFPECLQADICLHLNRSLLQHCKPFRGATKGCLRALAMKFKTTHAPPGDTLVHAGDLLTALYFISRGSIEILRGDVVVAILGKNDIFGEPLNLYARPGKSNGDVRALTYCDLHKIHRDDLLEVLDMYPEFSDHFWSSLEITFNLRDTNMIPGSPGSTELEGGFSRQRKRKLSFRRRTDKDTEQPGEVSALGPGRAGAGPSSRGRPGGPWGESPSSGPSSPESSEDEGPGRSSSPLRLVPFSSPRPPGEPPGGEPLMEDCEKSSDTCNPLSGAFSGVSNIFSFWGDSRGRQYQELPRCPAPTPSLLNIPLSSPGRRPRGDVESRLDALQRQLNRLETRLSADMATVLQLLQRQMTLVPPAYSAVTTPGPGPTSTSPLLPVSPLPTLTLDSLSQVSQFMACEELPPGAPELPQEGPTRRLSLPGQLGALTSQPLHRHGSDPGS

Point of comparison: `CCOc1ccc(-n2c(SCC(=O)Nc3ccc(OC)cc3)nc3sc4c(c3c2=O)CCN(C)C4)cc1`, “hERG current change (%, negative = inhibition) at 1uM” value 16.3%. Against it:
- O=C(CSc1cn[nH]n1)Nc1ccccc1F — lower, 4.01%
- Cc1occc1C(=O)N1CCN(c2ccccc2)CC1 — lower, 3.49%
- CN1CCN(C(=O)c2ccc(CNS(=O)(=O)c3ccc(F)c(Cl)c3)cc2)CC1 — lower, 2.45%
- O=C(NCc1ccco1)C1CCCN(S(=O)(=O)Cc2ccccc2)C1 (stereo not drawn) — lower, 13.5%
- COc1ccc(OC)c(/C=C/C(=O)OCC(=O)Nc2nnc(-c3ccccc3)o2)c1 — lower, 7.49%
- C=CCNC(=S)N1CCC(Cc2ccccc2)CC1 — lower, 4.99%
- COc1ccc(C2C(C(=O)C(C)(C)C)=C(O)C(=O)N2Cc2ccccc2)cc1 (stereo not drawn) — lower, 13.1%
- CC(NC(=O)CSc1nc2c(c(C(F)(F)F)n1)CCc1ccccc1-2)c1ccccc1 (stereo not drawn) — lower, 6%
- Cc1cc(=O)[nH]c(SCC(=O)c2ccc3c(c2)NC(=O)CO3)n1 — lower, 8.59%
- O=C(Oc1ccc(Br)cc1)c1cccnc1 — lower, 5.97%
- O=C(NCc1ccc(Cl)cc1)C1CCCN1C(=O)Nc1ccc(F)cc1 (stereo not drawn) — lower, -1.75%
- CCn1c(O)c(/C=C2\C=Nc3ccccc32)sc1=Nc1ccc(C)cc1 — lower, 1.23%
- COc1ccccc1N1CCN(C(=O)CCc2c[nH]c3ccccc23)CC1 — lower, -1.67%
- COc1ccc(S(=O)(=O)N(CC(=O)N2CCCCCC2)c2ccccc2OC)cc1 — lower, -5.65%
- O=P(COCCOCCOCCOCP(=O)(c1ccccc1)c1ccccc1)(c1ccccc1)c1ccccc1 — lower, 5.55%
- O=C(Cc1ccccc1)Nc1ccc(CN2CCOCC2)cc1 — lower, 2.59%
- COC(=O)N/N=C\c1ccc(OC(=O)c2ccco2)cc1 — lower, 8.37%
- CCn1cc(C2C3=C(CC(C)(C)CC3=O)N(c3ccccc3)C3=C2C(=O)CC(C)(C)C3)c(C)n1 — lower, 9.4%
- Cc1cc(C)cc(NC(=O)NC2CCN(CC(=O)Nc3cccc(Cl)c3C)CC2)c1 — lower, 5.76%
- CS(=O)(=O)c1ccc(Cl)c(NC(=O)c2cc(S(=O)(=O)N3CCOCC3)ccc2N2CCCC2)c1 — lower, -60.2%
- CC1CC(C)CN(CCCNC(=O)Cc2c(C(=O)O)n(C)c3ccccc23)C1 (stereo not drawn) — lower, -4.82%
- Cc1ccc(S(=O)(=O)N2CCC(C(=O)N3CCC(C(=O)NCc4cccnc4)CC3)CC2)cc1 — lower, 5.95%
- Cc1ccc(S(=O)(=O)NCC(=O)OCc2ccccc2)cc1 — lower, 10.1%
- O=C(NCC(c1ccco1)N1CCN(c2ccccc2)CC1)c1cccs1 (stereo not drawn) — lower, 1.74%
- CCOc1ccc(C(=O)NCC(=O)OCCCC(=O)c2ccc(F)cc2)cc1OCC — lower, 3.6%
- CCOc1ccc(NC(=S)N2CCN(S(=O)(=O)c3ccc(OC)cc3)CC2)cc1 — lower, 10.3%
- CC(=O)N1CCSc2ccc(S(=O)(=O)NCc3ccc(F)cc3)cc21 — lower, -1.41%
- CCOC(=O)C1CCCCN1Cc1cccc(OCc2ccccc2)c1.O=C(O)C(=O)O (stereo not drawn) — lower, 12.5%
- CCOC(=O)N/N=C(\C)c1ccc(OC(F)F)cc1OC(F)F — lower, 5.66%
- OC1CCN(c2c3c(nc4cc(-c5cccc(F)c5)nn24)CCCC3)CC1 — lower, 4%
- CCSCc1nnc(SCC(=O)c2ccc(OC)cc2)n1C — lower, 2.03%
- COCc1nc2c([nH]1)c(=O)n(C)c(=O)n2CC(C)C — lower, -5.58%
- O=C(Nc1cc([N+](=O)[O-])ccc1N1CCCC1)c1ccccc1 — lower, 2.67%
- CCc1ccccc1NC(=O)CSc1nc2c(c(-c3ccco3)c1C#N)CCCC2 — higher, 21.9%
- Cc1c(C(=O)NCCN2CCOCC2)oc2ccccc12 — lower, 9.09%
- COc1ccc(C2(O)CN(c3ccccc3)C3=[N+]2CCS3)cc1OC.[Br-] (stereo not drawn) — lower, 5.45%
- CCOc1ccc(NC(=S)Nc2ccc3nsnc3c2)cc1 — lower, -0.48%
- CCN(CC)C(=O)c1sc(N)c(C#N)c1C — lower, 11.4%
- O=C(O)c1ccc(N=Nc2c(O)[nH]c3cc(Cl)ccc23)cc1 — lower, 10.6%
- CC(=O)c1ccc(NC(=O)CN2CCC(C(=O)c3ccc4c(c3)OCCO4)CC2)cc1 — lower, 1.1%
- CCN(CC)S(=O)(=O)c1ccc(Cl)c(NC(=O)COc2ccccc2[N+](=O)[O-])c1 — lower, 7.69%
- COc1ccccc1NC(=O)CCS(=O)(=O)c1ccc2c(c1)oc(=O)n2C — lower, 8.69%
- CCn1c(SCc2ccccc2)nnc1-c1cccnc1 — lower, 10.3%
- COc1cc(CCC(=O)NNC(=O)c2cccc(Cl)c2)cc(OC)c1OC — lower, 12.2%
- Clc1ccc(OCC#CCN2CCCCCC2)cc1.O=C(O)C(=O)O — lower, -5.05%
- Cc1ccc(Nc2nnns2)cc1C — lower, 15.1%
- O=C(CSC1=NCCS1)N1CCCCCC1 — lower, 7.93%
- Cc1ccc(/C=N/Nc2ccc(F)cc2F)s1 — higher, 17.2%
- COc1ccc(Cc2nnc(SC)[nH]c2=O)cc1 — higher, 19.8%
- O=c1cc(-c2ccccc2)nc2n1Cc1ccccc1-2 — lower, 1.33%
- Cc1cc(O)ccc1NC(=O)c1ccccc1 — lower, 9.91%
- Cc1ccc(-c2nnn(CC(=O)N(CC(=O)NCc3ccccc3)c3cccc(C)c3C)n2)o1 — lower, -5.84%
- O=C(COc1ccccc1)NNc1nc2c(F)cc(F)cc2s1 — lower, -14.7%
- CC(C)c1nnc(SCC(=O)NC2CCCCC2)n1C — lower, 16.2%
- O=C(CCc1ccc(O)cc1)NNC(=S)NCCc1ccccc1 — lower, 10.7%
- COc1cc(C2Oc3cc(C4Oc5cc(O)cc(O)c5C(=O)C4O)ccc3OC2CO)ccc1O (stereo not drawn) — higher, 18.2%
